Reference: PubChem BioAssay AID1466 (National Center for Advancing Translational Sciences (NCATS), 2008)
The whole screen tested about 200,000 compounds, of which about 10 (0.005%) were called active. Inconclusive means that the source gave no clear call. Such entries were picked first, then a sample of the others. Calls come from the whole dose curve; as a rule, active = well fitted inhibition curve with a large enough effect; inconclusive = small, poorly fitted or top-dose-only effect, or effect the other way, or another doubt; inactive = no such curve, though single readings can be large or run the other way. Potencies of inconclusive entries are left out as doubtful fits.

Molecular target: Lysosomal alpha-glucosidase (Homo sapiens) (UniProt P10253)
Test: qHTS Assay for Inhibitors of Human alpha-Glucosidase as a Potential Chaperone Treatment of Pompe Disease;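 for activity change, negative = inhibition: plate controls were uninhibited enzyme wells for no effect and no-enzyme background for full effect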
Conditions: purified human GAA, 4-MU-alpha-glucoside fluorescence; activity change, negative = inhibition: at 76.9 µM (top of the series) unless noted
Procedure, shortened: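 Read-out is 4-methylumbelliferone fluorescence (Ex 365/Em 440 nm) after NaOH/glycine stop at pH 10. Enzyme 4 nM, substrate 400 uM, pH 5.0 citrate buffer, 20 min room temperature; AC50 from Hill-equation concentration-response.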
Potency is the fitted concentration of half-maximal effect; tags give direction and shape of the fitted curve.

Structure (SMILES) | Potency | activity change, negative = inhibition
CCOC(=O)N1CCN(C(=O)CN(c2cc(Cl)ccc2OC)S(=O)(=O)c2ccccc2)CC1 | inconclusive [inhibitor, single point] | 
COc1ccccc1N=C(C)C1=C(O)CC(c2ccccc2)CC1=O (stereo unspecified) |  | inconclusive: 7.92% [activator]
CCOC(=O)N1CCC(n2c(SCC(=O)c3ccccc3)nc3ccsc3c2=O)CC1 | inconclusive [inhibitor, full curve] | 
Cc1cc(C)n(-c2nc3c(c(=O)[nH]c(=O)n3C)n2CC(O)COc2ccccc2C)n1 (stereo unspecified) | inconclusive [inhibitor, single point] | 
O=C(NC(=O)N1CCCCC1)c1ccccc1 | inconclusive [activator, full curve, poor fit] | 
O=C(Nc1nccs1)c1ccccc1N=Cc1ccccc1 | inconclusive [activator, partial curve] | 
Cc1onc(-c2ccccc2Cl)c1C(=O)NCc1nc(-c2ccccc2)no1 | inconclusive [inhibitor, partial curve, poor fit] | 
CSc1nnc(C)c(/C=C/Nc2ccc(Cl)cc2)n1 | inconclusive [inhibitor, full curve, poor fit] | 
COc1ccc(NS(=O)(=O)c2ccc(O)c(NC(=O)c3cc4c(C)nn(-c5ccc(F)cc5)c4s3)c2)cc1 | inconclusive [inhibitor, partial curve] | 
OC(COc1ccc2c(c1)CCC2)CN1CCN(c2ccccc2F)CC1 (stereo unspecified) | inconclusive [inhibitor, single point] | 
Cc1cccc(C)c1OCC(O)CN1CCN(c2ccccc2)CC1 (stereo unspecified) | inconclusive [inhibitor, single point] | 
CN1c2ccccc2-c2nc3ccccc3n2C1c1ccco1 (stereo unspecified) | inconclusive [activator, partial curve] | 
CCOc1ccccc1NC(=O)C(OC(=O)c1cc(C)oc1C)c1ccccc1 (stereo unspecified) | inconclusive [inhibitor, partial curve] | 
Cc1ccc(C)n1-c1nccc(-c2cccs2)n1 | inconclusive [activator, partial curve] | 
Cc1cccc(CSC2=NCCN2C(=O)c2ccc(S(=O)(=O)N(C)C)cc2)c1 |  | inconclusive: -16.4% [inhibitor]
O=C(NC12CC3CC(CC(C3)C1)C2)c1ccc(-c2ccccc2Cl)o1 | inconclusive [activator, single point] | 
O=C(Cc1ccccc1)NNC1CC(=O)N(c2ccc(Cl)cc2)C1=O (stereo unspecified) |  | inconclusive: 15.1% [activator]
CSc1ccccc1NC(=O)c1ccccc1C |  | inconclusive: 16.5% [activator]
N#C/C(=C\c1ccc(O)c(O)c1)C(=O)N1CCCC1 |  | inactive: -2.93%
COc1ccc(NC(=O)c2cccc(S(=O)(=O)N3CCc4ccccc43)c2)cn1 |  | inconclusive: -17.4% [inhibitor]
CC(C)C(=O)c1cn(CC(=O)O)c2ccccc12 |  | inconclusive: 16.7% [activator]

Structure (SMILES) | Potency | activity change, negative = inhibition
CCCOc1ccc(C2C(C(=O)c3ccco3)=C(O)C(=O)N2CCCn2ccnc2)cc1 (stereo unspecified) | inconclusive [inhibitor, single point] | 
COc1cc2c(cc1NC(=O)CC1SC(N3CCCC3)=NC1=O)oc1ccccc12 (stereo unspecified) | inconclusive [inhibitor, full curve, poor fit] | 
Cc1ccc(CN2CCc3[nH]c(=O)[nH]c(=O)c3C2)cc1 |  | inconclusive: -15.6% [inhibitor]
CCOC(=O)c1ccc(Nc2cnc3ccccc3n2)cc1 |  | inconclusive: 15.8% [activator]
Oc1ccccc1C=Nc1ccccc1-c1nc2ccccc2[nH]1 | inconclusive [activator, partial curve] | 
CCNC(=O)COC(=O)c1ccc(-c2nc3ccccc3s2)s1 | inconclusive [activator, partial curve] | 
COc1cccc(N2CCN(C(=S)NCCc3ccccc3)CC2)c1 | inconclusive [inhibitor, full curve, poor fit] | 
COc1ccc(C(C#N)N2N=C(C)CC2(C)C)cc1OC (stereo unspecified) |  | inconclusive: -15.2% [inhibitor]
O=C1N(Cc2cccnc2)C[C@@H]2C[C@@H](c3ccc4nonc4c3)N3CCC[C@@]123 |  | inconclusive: 16.1% [activator]
O=C(NC(NNc1ccc([N+](=O)[O-])cc1)(C(F)(F)F)C(F)(F)F)c1ccccc1Cl | inconclusive [inhibitor, single point] | 
CC(C)(C)NC(=O)Cn1cc(C#N)c2cc(Br)ccc21 | inconclusive [inhibitor, single point] | 
CCCCn1c(=S)[nH]c2cc(S(=O)(=O)N3CCCCC3)ccc21 | inconclusive [inhibitor, single point] | 
O=C(COC(=O)c1ccc2c(c1[N+](=O)[O-])C(=O)c1ccccc1C2=O)NC1CC1 |  | inactive: 3.79%
CC(=O)Nc1nc2nc(-c3ccccc3)cc(-c3ccccc3)n2n1 | inconclusive [activator, single point] | 
CCOc1cc(S(=O)(=O)n2cc(-c3ccc(F)cc3)c(N)n2)cc(OCC)c1OCC | inconclusive [inhibitor, partial curve] | 
O=C(O)c1cccc(NC(CNS(=O)(=O)c2ccc(Cl)cc2)c2ccccc2)c1 (stereo unspecified) | inconclusive [activator, full curve] | 
Cc1ccc(S(=O)(=O)N(C)C)cc1NC(=O)CSc1nnnn1-c1ccc(O)cc1 | inconclusive [inhibitor, single point] | 
Cc1ccc(CN(C(=O)c2cc(=O)c3cc(Cl)c(C)cc3o2)C2CCS(=O)(=O)C2)cc1 (stereo unspecified) | inconclusive [inhibitor, partial curve] | 
COc1ccc(C(=O)ON=C2CCN(C)CC2)cc1 |  | inconclusive: 15.8% [activator]
CCOC(=O)COc1ccc(S(=O)(=O)c2ccc(OCC(=O)OCC)cc2)cc1 | inconclusive [inhibitor, single point] | 
